Measured values from paper PMC4336329 (PLoS ONE, 2015).
The campaign covered roughly 310,000 compounds. About 2,200 (0.71%) showed an effect of 50% or more. Effects have a minus sign here. The list shows a part of the results.

Target: human ether-à-go-go-related gene (hERG) potassium channel (human, UniProt Q12809)
Experiment: primary screen, population patch clamp on CHO cells stably expressing hERG

Chain of human ether-à-go-go-related gene (hERG) potassium channel (Q12809 whole entry, looked up): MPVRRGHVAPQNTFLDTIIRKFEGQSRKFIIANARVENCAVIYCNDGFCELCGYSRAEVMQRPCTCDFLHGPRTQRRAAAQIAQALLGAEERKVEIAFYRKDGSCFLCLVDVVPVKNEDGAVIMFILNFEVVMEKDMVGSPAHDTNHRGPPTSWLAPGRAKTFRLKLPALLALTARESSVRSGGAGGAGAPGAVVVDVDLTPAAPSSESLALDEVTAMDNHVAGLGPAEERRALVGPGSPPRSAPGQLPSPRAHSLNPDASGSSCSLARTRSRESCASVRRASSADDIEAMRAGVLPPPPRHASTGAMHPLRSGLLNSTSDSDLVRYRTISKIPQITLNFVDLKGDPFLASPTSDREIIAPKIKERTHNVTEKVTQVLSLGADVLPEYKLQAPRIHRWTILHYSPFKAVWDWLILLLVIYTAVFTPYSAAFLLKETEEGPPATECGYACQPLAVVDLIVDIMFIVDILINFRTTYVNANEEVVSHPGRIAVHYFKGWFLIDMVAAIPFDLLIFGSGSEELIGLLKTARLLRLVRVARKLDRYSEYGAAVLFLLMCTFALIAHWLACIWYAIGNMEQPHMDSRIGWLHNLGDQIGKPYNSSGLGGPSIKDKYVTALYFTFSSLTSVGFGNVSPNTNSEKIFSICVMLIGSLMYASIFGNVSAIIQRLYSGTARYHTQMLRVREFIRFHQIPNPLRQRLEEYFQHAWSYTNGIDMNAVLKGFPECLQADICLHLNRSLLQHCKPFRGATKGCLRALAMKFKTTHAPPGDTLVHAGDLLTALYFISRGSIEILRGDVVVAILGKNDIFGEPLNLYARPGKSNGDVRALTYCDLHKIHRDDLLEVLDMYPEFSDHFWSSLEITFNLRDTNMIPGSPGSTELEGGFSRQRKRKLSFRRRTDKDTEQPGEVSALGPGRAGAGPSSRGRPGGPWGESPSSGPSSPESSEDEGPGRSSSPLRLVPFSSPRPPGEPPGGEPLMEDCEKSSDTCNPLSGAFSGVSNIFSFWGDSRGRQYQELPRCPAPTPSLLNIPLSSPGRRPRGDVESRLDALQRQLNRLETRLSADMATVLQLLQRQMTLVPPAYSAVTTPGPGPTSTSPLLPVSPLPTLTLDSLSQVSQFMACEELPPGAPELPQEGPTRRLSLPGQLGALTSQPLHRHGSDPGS

| Structure (SMILES) | hERG current change (%, negative = inhibition) at 1uM [%] |
| --- | --- |
| CC1CCC(NC(=O)CN(C)S(=O)(=O)c2ccc3c(c2)c(=O)n(C)c(=O)n3C)CC1 (stereo not drawn) | 6.81 |
| CCOc1ccc(CNC(=O)c2ccc(Sc3ccc(C)cc3)c(NC(C)=O)c2)cc1OC | 6.67 |
| CCN(CCn1cccn1)Cc1nc(-c2ccc(OC)cc2)no1 | 1.32 |
| COc1cc(OC)c(NC(=O)CS(=O)(=O)Cc2nc(-c3ccc(C)cc3)oc2C)cc1Cl | 16.1 |
| CC(=O)CCc1c(C)c2cccc(C)c2[nH]c1=O | 8.68 |
| CC(Sc1nc(-c2ccc(F)cc2)cs1)C(=O)Nc1ccc(Cl)cn1 (stereo not drawn) | 11 |
| Cc1cccc(C)c1NC(=O)CN1C(=O)NC(C)(CCc2ccccc2)C1=O (stereo not drawn) | 11.9 |
| Cc1cccc(S(=O)Cc2ccc(C(=O)NC3CCN(Cc4ccccc4)CC3)o2)c1 (stereo not drawn) | 10.5 |
| CCCN(CCC)CCNC(=O)CS(=O)Cc1nc(-c2ccc(C)cc2)oc1C (stereo not drawn) | -11.3 |
| COc1ccc(COC(=O)c2ccc(C)c(S(=O)(=O)N3CCOCC3)c2)cc1F | 16 |
| COc1ccc2nc(NC(=O)CCNC(=O)c3ccco3)sc2c1 | -0.259 |
| O=C(O)c1cccc(NC(=O)c2cccc(S(=O)(=O)N3CCCCC3)c2)c1 | 9.28 |
| CCC(C)NC(=O)C(Cc1ccccc1)n1cccc1 (stereo not drawn) | 7.43 |
| CCCNC(=O)c1ccc2c(=O)c(O)c(-c3ccc(OC)cc3)[nH]c2c1 | 11.9 |
| C[C@H]1O[C@H](O[C@H]2[C@H](O[C@@H]3CC[C@@]4(C)C(CC[C@]5(C)C4CC=C4[C@@H]6CC(C)(C)CC[C@]6(C(=O)O[C@@H]6O[C@H](CO)[C@@H](O)[C@H](O)[C@H]6O)CC[C@]45C)C3(C)C)O[C@H](C(=O)O)[C@@H](O)[C@@H]2O)[C@@H](O)[C@@H](O)[C@@H]1O (stereo partly drawn) | 12.3 |
| O=C(CCN1C(=O)/C(=C/c2ccccc2)SC1=S)NNC(=O)c1ccncc1 | 8.35 |
| CC(=O)N1c2ccc([N+](=O)[O-])cc2NC(=O)CC1C (stereo not drawn) | 12 |
| Cc1ccc(N2CCN(C(=S)c3ccc(N(C)C)cc3)CC2)cc1 | 1.97 |
| O=C(Nc1cccc(C(F)(F)F)c1)c1ccc(-n2cncn2)nc1 | 5.62 |
| COc1ccc(C(CNC(=O)C(Cc2ccccc2)NC(N)=O)N(C)C)cc1 (stereo not drawn) | 12.8 |
| Cc1ccc(Sc2ncccc2C(=O)N(C)Cc2cccs2)c(C)c1 | 13.1 |

| Structure (SMILES) | hERG current change (%, negative = inhibition) at 1uM [%] |
| --- | --- |
| CC1(C)C(O)=C(c2nc3ccccc3[nH]2)C(=N)N1c1ccccc1 | 5.93 |
| CC(=O)Nc1ccc(S(=O)(=O)N2CCC(C(=O)NCCC(=O)Nc3ccccc3)CC2)cc1 | 8.98 |
| Cc1nc2c(C(=O)NCCC(C)C)c[nH]n2c(=O)c1Cc1ccccc1F | 6.55 |
| COc1ccc(N(C(=O)c2ccco2)S(=O)(=O)c2cc(Cl)c(Cl)cc2Cl)cc1 | -1.28 |
| CCc1ccc(NC(=O)c2ccc(F)c(S(=O)(=O)NCC3COc4ccccc4O3)c2)cc1 (stereo not drawn) | 10.1 |
| CCC(=O)N1CCN(c2ccccc2NC(=O)COc2cc(C)ccc2C(C)C)CC1 | -1.03 |
| COCC(=O)n1nc(-c2ccc(Cl)cc2)nc1NCc1ccc(F)cc1 | 3.13 |
| COc1ccc(NC(=O)CSc2nc(N)c(NC(=O)c3cccs3)c(=O)[nH]2)cc1 | 10.2 |
| Cc1cccnc1NC(=S)Nc1ncccc1C | 13.3 |
| CCOc1ccc(S(=O)(=O)Nc2ccc(C(=O)NCC(c3ccco3)N3CCCCC3)cc2)cc1 (stereo not drawn) | 16.3 |
| CCn1c(SCC(=O)N2CCOCC2)nnc1-c1ccco1 | 6.09 |
| O=C(COc1ccccc1)NNC(=S)NC(=O)c1ccccc1 | 12.1 |
| Cc1cc(C)c(NC(=O)COC(=O)C2CCC(=O)N2)c(C)c1 (stereo not drawn) | -4.44 |
| CS(=O)(=O)N(CC(=O)NCc1cccnc1)Cc1ccc(Cl)cc1 | -10.8 |
| Cc1cccc(CSc2ncnc3c2cnn3Cc2ccccc2)c1 | 15.9 |
| CC(C)C(NC(=O)c1ccccc1)C(=O)OCC(=O)N1CCCCC1 (stereo not drawn) | 22.3 |
| COc1cccc(OC)c1C(=O)OCC(=O)N(C)c1ccccc1 | 11.7 |
| COc1ccc(CC(=O)Nc2ccc(F)c(F)c2F)cc1S(=O)(=O)N1CCOCC1 | 1.54 |
| CC(C)CNC(=O)C1CCN(c2ccc(S(=O)(=O)N3CCOCC3)cc2)CC1 | -0.364 |
| COC(=O)c1cc(NC(=S)NC(=O)c2ccccc2)ccc1N1CCOCC1 | 3.62 |
| Cc1ccccc1C(=O)N(CC(=O)Nc1sc(C)c(C)c1C(N)=O)C1CCCC1 | 7.19 |

| Structure (SMILES) | hERG current change (%, negative = inhibition) at 1uM [%] |
| --- | --- |
| CCN(CC)CCCN1CC(O)=C(c2nc3ccccc3s2)C1=N | -4.97 |
| COC(=O)c1c(NC(=O)Cc2cccs2)sc(C)c1C | -11.3 |
| COc1ccc2oc(C(=O)OCC(=O)NCCc3ccc(S(N)(=O)=O)cc3)c(C)c2c1 | 24.6 |
| Cc1ccc(/C=C2/C(=N)N3N=C(CC(=O)N4CCCC4)SC3=NC2=O)cc1 | 12.1 |
| O=C1c2ccccc2CN1CCNS(=O)(=O)c1ccc2ccccc2c1 | 2.77 |
| CCn1c(SCC(=O)Nc2ccc3[nH]c(=O)[nH]c3c2)nnc1-c1ccccc1 | 0.517 |
| CCNc1nc(NC(C)C)nc(N(C#N)C(C)C(=O)N(CC)CC)n1 (stereo not drawn) | 4.95 |
| CCCCNC(=S)NC(C)(C)CO | 10.1 |
| COCCn1c(C2CCCCC2)nc2sc3ccccc3c(=O)c2c1=O | 5.12 |
| Cc1ccc(S(=O)(=O)NCCCNS(=O)(=O)c2ccccc2)cc1 | 3.78 |
| Clc1ccc(-c2onc3c2CCCC3)cc1 | 11 |
| Cc1ccc(Sc2ncccc2/C=N/O)cc1 | 3.26 |
| CC(C)(C)N(Cc1ccccc1)C(=O)COc1cccnc1[N+](=O)[O-] | 14.4 |
| Cc1cc2c(cc1S(=O)(=O)NCc1ccc(N(C)C)cc1)OCC(=O)N2 | -6.92 |
| CCn1cc(CN2CCC(n3nccc3NC(=O)CCOc3ccccc3)CC2)c(C)n1 | 15.4 |
| COc1ccc(C(C(=O)NCC2CCCO2)N(Cc2ccccc2)C(=O)c2snc(C(N)=O)c2N)cc1OC (stereo not drawn) | 8.92 |
| COCCCN(C(=S)Nc1cccc(Cl)c1)C(C)c1ccncc1 (stereo not drawn) | -0.116 |
| CCOC(=O)C1(Cc2cccc(F)c2)CCN(CCCn2cccn2)CC1 | -51.2 |
| COc1ccc(CN(C(=O)c2snc(C(N)=O)c2N)C(C(=O)NC(C)(C)C)c2ccco2)cc1 (stereo not drawn) | 3.06 |
| NC(=O)[C@@H]1CCCN1Cc1nc(Cc2ccccc2Cl)no1 | 4.87 |
| CC(C)CCNC(=O)C1CCC(CNS(=O)(=O)c2ccc(Cl)cc2)CC1 (stereo not drawn) | 16.2 |

| Structure (SMILES) | hERG current change (%, negative = inhibition) at 1uM [%] |
| --- | --- |
| CCc1nccn1S(=O)(=O)c1ccc(C)c(C)c1 | 4.29 |
| Cc1c(C(=O)NCc2ccco2)oc2c(Cl)cccc12 | 20.8 |
| CCOc1ccc(N2C(=O)S/C(=C\c3ccc(O)c(OC)c3)C2=O)cc1 | -3.85 |
| N#CCc1ccc(C(=O)c2ccccc2)s1 | 5.58 |
| Cc1ccc(CSCC2Nc3ccc(C(=O)N4CCN(c5cccc(C)c5)C(C)C4)cc3NC2=O)cc1 (stereo not drawn) | 23.1 |
| O=C(NCCOc1ccccc1F)c1cc([N+](=O)[O-])ccc1N1CCOCC1 | -9.33 |
| Cc1ccc(Cl)c(OCC(=O)OCC(=O)NC2CCCc3ccccc32)c1 (stereo not drawn) | 6.96 |
| Cc1nnc(Sc2nc3c(c(=O)[nH]c(=O)n3C)n2CCc2ccccc2)s1 | 1.69 |
| Cc1ccccc1C(O)c1ccncc1 (stereo not drawn) | 10.5 |
| CCO[C@H]1OC(C(=O)NCc2nc3ccccc3[nH]2)=C[C@@H](c2ccc3c(c2)OCO3)[C@@H]1CCCO | 0.543 |
| Cc1ccc(S(=O)(=O)N2CCOCC2)cc1NC(=O)COC(=O)c1ccc(OCc2c(C)noc2C)cc1 | -0.389 |
| CCCCC(=O)NC(NC(=S)N1CCCCCC1)C(Cl)(Cl)Cl (stereo not drawn) | 12.4 |
| Cc1ccc(C(=O)N2CCN(Cc3nc4sc5c(c4c(=O)[nH]3)CCCC5)CC2)cc1 | -36.9 |
| Cc1nccnc1Sc1ccccc1 | 8.26 |
| CCc1nnc(NC(=O)CSc2nnc(C)n2Cc2ccccc2)s1 | 1.89 |
| COc1cc(-n2c(=O)c3ccccc3n(Cc3ccccc3)c2=O)cc(OC)c1OC | 4.49 |
| Fc1cccc(Cc2noc(CN3CCOCC3)n2)c1 | 10.8 |
| CCN1C(=O)c2ccc(C(=O)NCc3ccco3)cc2C1=O | 11 |
| Cc1ccc(CN2CCN(Cc3cccn3-c3ccc(Cl)cn3)CC2CCO)o1 (stereo not drawn) | 0.259 |
| CCN(CC)CCCN(C(=O)c1ccccc1F)c1nc(-c2ccc(OC)cc2)cs1 | -28.8 |
| CCCC(=O)c1ccc(N2CCC(C)CC2)c(F)c1 | 2.18 |
